Reference: article PMC6919601, “Identification of Plasmodium dipeptidyl aminopeptidase allosteric inhibitors by high throughput screening” (PLoS ONE, 2019)
The campaign covered roughly 110,000 compounds. About 230 (0.21%) showed an effect of 50% or more. This is one part of the list.

Molecular target: DPAP1 (Plasmodium falciparum, UniProt Q8IIJ9)
Assay: primary screen, percent inhibition; read by cleavage of a fluorogenic dipeptide substrate; higher = more effect of the substance
Parameters: species or system P. falciparum D10 trophozoite lysates; single well
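Further: 30 min substrate incubation versus DMSO and 10 µM JCP410 controls.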

Sequence of DPAP1 (Q8IIJ9 whole entry, looked up): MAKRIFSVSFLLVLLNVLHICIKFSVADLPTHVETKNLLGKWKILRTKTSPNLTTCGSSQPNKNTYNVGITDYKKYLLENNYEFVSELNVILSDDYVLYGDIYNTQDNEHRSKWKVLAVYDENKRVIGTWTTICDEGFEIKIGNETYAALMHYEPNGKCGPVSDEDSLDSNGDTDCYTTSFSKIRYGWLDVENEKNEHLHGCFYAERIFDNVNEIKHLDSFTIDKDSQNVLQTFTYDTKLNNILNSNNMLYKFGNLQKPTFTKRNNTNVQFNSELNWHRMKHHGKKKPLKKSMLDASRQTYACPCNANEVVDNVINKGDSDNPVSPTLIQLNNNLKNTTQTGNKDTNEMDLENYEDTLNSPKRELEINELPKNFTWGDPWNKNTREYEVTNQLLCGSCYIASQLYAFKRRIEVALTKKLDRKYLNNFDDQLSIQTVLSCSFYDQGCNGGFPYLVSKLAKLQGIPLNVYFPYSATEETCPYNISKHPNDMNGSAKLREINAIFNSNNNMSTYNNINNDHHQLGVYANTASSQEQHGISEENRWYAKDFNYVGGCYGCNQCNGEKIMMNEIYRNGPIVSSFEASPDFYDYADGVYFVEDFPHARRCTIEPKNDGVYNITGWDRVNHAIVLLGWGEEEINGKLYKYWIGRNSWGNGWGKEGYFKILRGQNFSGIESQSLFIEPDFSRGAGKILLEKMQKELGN

Compound | % Inhibition @ 10 uM [%]
CCc1cc2c(cc3c(=O)n(CC(=O)NC4CCCCCC4)ncn32)s1 | 3.29
CN1CCN(C2CC(=O)N(c3ccc(N4C(=O)CC(N5CCN(C)CC5)C4=O)cc3)C2=O)CC1 (centres unmarked) | -1.74
O=C(Nc1cccc(F)c1)[C@@H]1C[C@@H]1c1ccccc1 | -2.03
CCOc1ccc(C(=O)Nc2sc(C)c(CC)c2C(N)=O)cc1 | 3.53
CCOC(=O)/C=C(\C)N1N=C(c2cccs2)CC1c1ccc(F)cc1 (centres unmarked) | -0.424
Cc1ccc(CNc2ccc3nnc(-c4ccccc4)n3n2)cc1 | 1.89
CCOC(=O)C1=C(CC)OC(N)=C(C#N)C1c1ccc(Br)cc1 (centres unmarked) | 1.96
CCCCn1c(N)c(C#N)c2nc3ccccc3nc21 | -0.294
COc1ccccc1Nc1nc(-c2ccc(C)cc2)cs1 | 6.86
O=C(NCCCc1ccccc1)NC1CCCCC1 | -0.132
Cc1ccc(-c2csc(/C(C#N)=C/c3ccccc3Cl)n2)c(C)c1 | 0.98
COc1ccccc1/C=C1\N=C(SC)SC1=O | 2.56
CCOC(=O)c1cc(C(C)(C)C)c(O)c(C(C)(C)C)c1 | 2.17
CC(CCc1ccccc1)NC(=O)C(=O)NC1CCCCC1 (centres unmarked) | -5.33
COc1ccccc1NC(=O)CCCOc1ccc(Cl)cc1C | 1.03
COc1ccc(-c2nc(N)n(C(=O)c3ccco3)n2)cc1 | 2.32
COc1cc2cc(C(N)=O)c(N)nc2cc1OC | -2.02
CN(C)S(=O)(=O)c1cccc(-c2csc(-c3ccccc3)n2)c1 | -0.0619
Cc1ccc(CNC(=O)c2c(C)nn(-c3ccccc3)c2-n2cccc2)cc1 | -3.35
O=C(CN1C(=O)c2ccccc2C1=O)Nc1cccc(F)c1 | -2.6
CCOC(=O)C1CCN(Cc2ccccc2)CC1 | -3.56
Cc1cc(O)n2nc(NC(=O)CC(C)C)nc2n1 | 3.66
Cc1cc(-c2ccc(C)c(S(=O)(=O)N3CCN(C4CCCCC4)CC3)c2)[nH]n1 | 1.11
Cc1c(C)n(C)c2ccc(C(=O)NCCCN3CCOCC3)cc12 | 6.03
CCOc1ccccc1N(CC(=O)O)S(=O)(=O)c1ccc(C)cc1 | -0.0925
C=Cc1ccc(CSc2ncc(C(=O)OCC)c(N)n2)cc1 | 0.776

Compound | % Inhibition @ 10 uM [%]
COc1ccc(NC(=O)c2ccc(OC)c(OC)c2)cc1 | 0.317
Cn1cnc([N+](=O)[O-])c1C(=O)NCCCO | -0.424
Cc1nc(=O)c(-c2ccccc2)c(C)n1-c1ccc(Cl)cc1Cl | -12.4
COc1cccc(S(=O)(=O)NCc2ccc(C(=O)N3CCCCC3)cc2)c1 | -3.37
COc1ccc(C=C2C(=O)OC(C)(c3ccccc3)OC2=O)c(OC)c1 (centres unmarked) | 5.06
CCNCC(O)COc1cc(C)c(Cl)c(C)c1 (centres unmarked) | 11
CC(=O)N1c2ccccc2C2(O)C1SC1=[N+]2CCCCC1 (centres unmarked) | 9.94
Nc1ccc2oc(-c3ccccc3)nc2c1 | -2.35
O=C(NCc1ccccc1F)c1nc(CS(=O)(=O)c2ccccc2)no1 | -1.05
Cc1nc2c(C(=O)NCc3ccccn3)cnn2c(C)c1Cc1ccccc1Cl | -2.14
CC(=O)N(CC(O)COc1cccc2ccccc12)C(C)C (centres unmarked) | -2.32
COCCNC(=O)C1CC(c2ccc(F)cc2)=NO1 (centres unmarked) | 1.24
COc1ccc(CN2C(=O)C3C4C=CC(C4)C3C2=O)cc1 (centres unmarked) | -2.07
CN(C)c1ccc(/C=C/CN2CCSCC2)cc1 | 0.217
CCNc1nc(NCC)nc(Oc2ccccc2C(=O)OC)n1 | 2.26
COc1ccc(/C=C/C(=O)NCC2(c3ccccc3)CCCC2)cc1OC | 2.3
CNC(=S)/N=C(\Nc1ccc(C)cc1)c1ccccc1 | -4.06
Cc1ccc(-n2ncc(C(=O)Nc3ccccn3)c2C2CCN(C(=O)OC(C)(C)C)CC2)cc1C | 6.05
CCOC(=O)N1CCN(C(=O)CSc2cn(Cc3ccccc3Cl)c3ccccc23)CC1 | -6.85
COc1ccc(CN2CCN(Cc3ccccc3)CC2)cc1C | -1.86
NC(=O)C1CCCN(CC2CCCCC2)C1 (centres unmarked) | -2.24
COc1ccc(-c2noc(CN(C(=O)C(C)(C)C)C(C)C)n2)cc1 | -5.58
Cc1ccc(C(=O)Nc2cc3ccccc3oc2=O)cc1 | -4.5
CCOc1ccc(-c2oc3cc(Cl)ccc3c(=O)c2O)cc1OCC | -1.17
CC(C)OCCCNC(=O)CN1N=C(c2ccccc2)CCC1=O | 2.18
N#CCNC(=O)[C@H](Cc1ccc(OCc2ccccc2)cc1)NC(=O)OCc1ccccc1 | 1.71

Compound | % Inhibition @ 10 uM [%]
O=C(NCc1ccc(F)cc1)N1CCC(CN2CCOCC2)CC1 | 3.24
CCOc1cccc(C2C(C(=O)c3ccc(F)cc3)=C(O)C(=O)N2Cc2cccnc2)c1 (centres unmarked) | -4.39
CC(C)CNCC1COc2ccccc2O1 (centres unmarked) | -1.69
O=S(=O)(NCCSCc1ccccc1Cl)c1ccc(Br)s1 | 5.64
Cc1nc(O)c2c(n1)OC(N)=C(C#N)C2c1cccc(F)c1 (centres unmarked) | -2.54
O=C(CCc1nnc2n(Cc3ccc(Cl)cc3)c(=O)c3ccccc3n12)NCCC1=CCCCC1 | 4.16
Cc1ccccc1C(=O)c1cccn1CC(=O)NCCN1CCOCC1 | -7.8
C=C(C)CNC(=S)N1CCN(C(c2ccccc2)c2ccccc2)CC1 | -5.41
O=C1CC(NCC2CCCO2)C(=O)N1c1ccc(F)cc1 (centres unmarked) | 2.84
CCC(C)(C)/N=c1/c(-c2ccccc2)c(O)c1=O | 2.51
COc1ccc(CNc2nc3c(S(=O)(=O)c4ccc(C)cc4C)nnn3c3ccccc23)cc1 | -3.08
Cc1cc(S(=O)(=O)N2CCOCC2)ccc1/N=C/c1c(C)nn(-c2ccc(Cl)cc2)c1O | -0.413
CCOC(=O)N1CCN(C(=O)CSc2nnc(-c3ccc(C(C)(C)C)cc3)o2)CC1 | -2.19
COc1cc(C(=O)Nc2ccc(S(=O)(=O)Nc3ccc(F)cc3)cc2)cc(OC)c1OC | 2.93
CC(Cc1ccccc1)NC(=O)c1ccc(N)cc1 (centres unmarked) | -0.0494
CCc1ccc(/C=C2\C(=O)NC(C)=C2C(=O)OC)cc1 | 0.222
O=C(O)CC1C(=O)N=C2C=CC=CN21 (centres unmarked) | 1.18
CC1CCCCN1C(=O)Nc1noc2c1COc1ccccc1-2 (centres unmarked) | -1.4
Cc1cc(C(F)F)nc2sc(C(=O)Nc3ccc(F)c(Cl)c3)c(N)c12 | 17.4
Fc1ccc(OCCSc2nc3ccccc3o2)cc1 | 6.79
O=C1OC(C2CCCCC2)=N/C1=C\c1cccc(Br)c1 | 6.86
Cc1ccc(-c2cc(=O)c3ccccc3o2)s1 | -4.43
CC(C)CNC(=O)c1ccccc1NC(=O)c1ccc(N(C)S(C)(=O)=O)cc1 | 6.61
Cc1[nH]c2ccc(CN)cc2c1C | -1.47
CCOC(=O)c1c(C)[nH]c(C)c1S(=O)(=O)N1CCC(C(=O)N2CC=C(c3ccccc3)CC2)CC1 | -4.36
CC1(C(=O)O)CCC(C(=O)Nc2ccc(F)cc2)C1(C)C (centres unmarked) | -5.96

Compound | % Inhibition @ 10 uM [%]
CC1(OC(=O)C(F)(F)F)CCC(CC(NC(=O)c2ccccc2)C(=O)NCC#N)CC1 (centres unmarked) | -5.21
CCC(C)Nc1oc(/C=C/c2cccc(OC)c2)nc1C#N (centres unmarked) | -6.29
O=C(CN(c1ccc(F)cc1)S(=O)(=O)c1ccc2c(c1)OCCO2)Nc1ccccc1F | 5.17
Cc1ccc(Cn2cc(CCC(=O)NC(C)C)c3ccccc32)cc1 | -1.97
CC(C)CC(NC(=O)c1cccc(O)c1)C(=O)NCC#N (centres unmarked) | 0.744
CCCCN(C)C(=O)Cn1ncc2c1-c1cc(C)ccc1OC2 | -4.01
COc1cc(NS(=O)(=O)c2ccccc2)c(OC)cc1N | -1.38
OC12CC3CC(C1)C(Nc1ccccc1)C(C3)C2 (centres unmarked) | -0.582
CC(C)c1c(Cl)c(O)c(-c2ccccc2)c(=O)n1-c1ccc(F)cc1 | 0.674
CCCCC1(O)CC(C)(C)N(O)C(C)(C)C1 | 2.45
COc1ccc(C(=O)NCc2ccco2)cc1S(=O)(=O)N1CCOCC1 | -6.48
Nc1cn(C2OC(CO)C(O)C(O)C2O)c(=O)[nH]c1=O (centres unmarked) | -1.37
COc1cccc(C(=O)Nc2ccncc2)c1OC | 1.61
CCCOc1ccc(C2C3=C(O)CC(C)(C)CC3=NC(C)=C2C(=O)Nc2ccccc2OC)cc1 (centres unmarked) | -0.864
OC(Cc1nc2ccccc2[nH]1)(c1ccccc1)c1ccccc1 | -5.82
COc1ccc(C2C(C(=O)c3ccc(Cl)cc3)=C(O)C(=O)N2c2nc(C)c(C)s2)cc1OC (centres unmarked) | -9.13
O=C1C2C(c3ccccc3)C=CC(c3ccccc3)C2C(=O)N1C1CCCCC1 (centres unmarked) | -7.18
N=c1sccn1CC(=O)c1cccs1 | -0.836
Fc1ccc(N2CCN(Cc3c(Cl)cccc3Cl)CC2)cc1 | -5.42
COc1ccc(C2CC(O)=C/C(=N/c3ccccc3N)C2)cc1OC (centres unmarked) | -2.68
CC(C)CCNC(=O)C1CCC(=O)N1CCc1ccccc1 (centres unmarked) | -1.79
COc1ccc(NC(=O)c2ccc(-c3cccc(Cl)c3)o2)cc1OC | -1.98
COc1cc(CNCCc2ccccc2)ccc1O | -4.12
CC(C)NC(=O)CN(C)S(=O)(=O)c1ccc(F)cc1 | 0.815
O=C1CC(N2CCSCC2)C(=O)N1c1cccc(Br)c1 (centres unmarked) | -2.16
CC(=O)NCCCC[C@H](NC(=O)[C@H](CC(C)C)NC(=O)c1ccc(-c2cnc(N=C(N)N)s2)cc1)C(=O)O | -3.04
